Measured values taken from PubChem BioAssay AID504333 (National Center for Advancing Translational Sciences (NCATS), 2011).
About 16,000 (4.4%) of roughly 360,000 compounds were called active. Inconclusive means that the source gave no clear call. Such entries were picked first, then a sample of the others. Calls come from the whole dose curve; as a rule, active = well fitted inhibition curve with a large enough effect; inconclusive = small, poorly fitted or top-dose-only effect; inactive = no such curve, though single readings can be large or run the other way. Potencies of inconclusive entries are doubtful fits and often do not repeat. The source holds several records for some structures; these can differ, active in one and inactive in another.

Target: Bromodomain adjacent to zinc finger domain protein 2B (Homo sapiens) (UniProt Q9UIF8)
Chain of UniProt Q9UIF8 (Q9UIF8 whole entry, looked up, the tested form may be a part): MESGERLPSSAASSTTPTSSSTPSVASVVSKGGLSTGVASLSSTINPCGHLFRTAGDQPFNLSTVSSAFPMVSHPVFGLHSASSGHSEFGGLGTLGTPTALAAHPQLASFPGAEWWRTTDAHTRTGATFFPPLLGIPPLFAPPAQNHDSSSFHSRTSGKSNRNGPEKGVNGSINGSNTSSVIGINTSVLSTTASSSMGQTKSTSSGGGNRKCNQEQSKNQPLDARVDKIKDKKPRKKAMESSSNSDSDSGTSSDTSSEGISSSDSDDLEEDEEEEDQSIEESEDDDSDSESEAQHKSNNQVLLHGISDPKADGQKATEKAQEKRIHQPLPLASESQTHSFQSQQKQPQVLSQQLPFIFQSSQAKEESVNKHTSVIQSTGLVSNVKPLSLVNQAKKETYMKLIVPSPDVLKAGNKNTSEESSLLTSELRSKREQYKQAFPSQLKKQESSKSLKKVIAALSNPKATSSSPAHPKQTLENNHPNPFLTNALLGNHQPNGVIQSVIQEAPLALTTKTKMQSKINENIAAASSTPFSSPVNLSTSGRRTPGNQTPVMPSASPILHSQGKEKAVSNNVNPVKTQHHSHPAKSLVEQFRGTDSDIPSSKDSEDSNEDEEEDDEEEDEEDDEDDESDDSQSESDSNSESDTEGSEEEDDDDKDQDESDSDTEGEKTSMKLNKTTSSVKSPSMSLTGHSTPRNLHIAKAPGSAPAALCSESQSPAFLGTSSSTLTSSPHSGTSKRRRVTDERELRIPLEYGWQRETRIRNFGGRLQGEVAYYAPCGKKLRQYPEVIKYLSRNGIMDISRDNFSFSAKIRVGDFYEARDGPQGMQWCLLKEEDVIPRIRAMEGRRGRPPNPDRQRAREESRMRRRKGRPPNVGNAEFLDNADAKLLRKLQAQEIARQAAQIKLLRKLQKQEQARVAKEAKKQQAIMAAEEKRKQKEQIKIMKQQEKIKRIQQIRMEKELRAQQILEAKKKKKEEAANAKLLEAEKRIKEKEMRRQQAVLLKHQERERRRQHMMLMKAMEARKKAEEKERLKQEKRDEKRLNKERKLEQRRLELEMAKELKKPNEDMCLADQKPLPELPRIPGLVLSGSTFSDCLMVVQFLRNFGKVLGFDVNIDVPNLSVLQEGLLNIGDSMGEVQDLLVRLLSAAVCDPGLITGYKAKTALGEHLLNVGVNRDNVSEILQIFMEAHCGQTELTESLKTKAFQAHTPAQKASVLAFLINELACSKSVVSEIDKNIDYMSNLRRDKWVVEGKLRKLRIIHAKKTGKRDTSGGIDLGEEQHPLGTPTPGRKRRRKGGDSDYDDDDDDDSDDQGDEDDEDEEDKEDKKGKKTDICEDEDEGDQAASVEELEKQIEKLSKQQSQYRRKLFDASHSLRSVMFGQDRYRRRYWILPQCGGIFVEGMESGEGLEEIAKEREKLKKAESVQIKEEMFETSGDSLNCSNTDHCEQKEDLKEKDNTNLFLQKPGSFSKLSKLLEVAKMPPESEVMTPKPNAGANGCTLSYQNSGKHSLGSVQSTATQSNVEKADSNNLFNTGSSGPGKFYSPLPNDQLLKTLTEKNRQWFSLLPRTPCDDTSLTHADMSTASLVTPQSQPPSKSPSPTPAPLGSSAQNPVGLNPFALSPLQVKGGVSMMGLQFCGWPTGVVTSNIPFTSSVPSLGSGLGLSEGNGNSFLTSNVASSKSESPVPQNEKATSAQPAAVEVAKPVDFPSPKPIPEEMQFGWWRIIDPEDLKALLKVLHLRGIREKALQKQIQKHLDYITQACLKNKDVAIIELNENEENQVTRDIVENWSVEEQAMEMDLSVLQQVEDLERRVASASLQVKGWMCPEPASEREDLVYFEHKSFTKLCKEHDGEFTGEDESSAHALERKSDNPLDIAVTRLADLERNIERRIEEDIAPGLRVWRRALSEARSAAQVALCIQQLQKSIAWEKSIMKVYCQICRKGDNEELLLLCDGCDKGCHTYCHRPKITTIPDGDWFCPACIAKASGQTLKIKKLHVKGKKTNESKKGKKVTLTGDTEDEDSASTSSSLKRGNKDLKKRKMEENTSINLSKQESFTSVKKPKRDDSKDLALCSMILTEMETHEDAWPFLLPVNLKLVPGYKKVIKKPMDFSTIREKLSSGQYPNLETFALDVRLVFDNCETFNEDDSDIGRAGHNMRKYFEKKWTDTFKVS
Assay: qHTS Assay for Inhibitors of BAZ2B; note: nearly all actives have a fitted effect of over 60% in size
Conditions: AlphaScreen BAZ2B-H3K14Ac peptide displacement; series mostly up to 114 µM
Outline: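 BAZ2B 50 nM plus b-H3(5-23)K14Ac 50 nM, PBS pH 7.4/0.01% Tween-20, 30 min RT; compound added (max 110 uM), 30 min RT; streptavidin donor/Ni-chelate acceptor beads 10 ug/mL final, 20 min dark; AlphaScreen read.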
Potency is the fitted concentration of half-maximal effect; tags give direction and shape of the fitted curve.

Structure (SMILES) | Potency
CC(C)CCOc1ccc(C(=O)CCNC(C)C(=O)O)cc1 (centres undefined) | inactive
Cc1nnc(SCC(=O)Nc2ccc([N+](=O)[O-])cc2)n1CC1CCCO1 (centres undefined) | inactive
COc1ccc(NS(=O)(=O)c2cc(OC)ccc2NC(=O)c2cc(C)oc2C)cc1 | inactive
CCOC(=O)c1noc2ncnc(N3CCC(C)CC3)c12 | inactive
O=C1N=c2ccccc2=C1c1[nH]c(=S)[nH]c1O | inconclusive: 79.4 µM [inhibitor, single point]
Cc1nc2c(c(C)nn2-c2ccccc2)c(C)c1CCC(=O)NCCc1ccccc1 | inactive
O=C/C(=C\Nc1ccccn1)c1nc2cc(Cl)ccc2o1 | inactive
CS(=O)(=O)c1ncc(Cl)c(C(=O)Nc2ccc(N3CCOCC3)cc2)n1 | inconclusive: 89.1 µM [inhibitor, single point]
CCCS(=O)(=O)c1nc(S(=O)(=O)c2ccc(C)cc2)c(N2CCCC2)s1 | inactive
Cc1c(/C=N/NC(=O)CNc2ccccc2)c2ccccn2c1C(=O)c1ccncc1 | inconclusive: 44.7 µM [inhibitor, partial curve]
CCCn1c(CCNc2nc(-c3ccc(OC)cc3)cs2)nc2ccccc21 | inconclusive: 50.1 µM [inhibitor, partial curve]
Cc1cccc(NCC(=O)N/N=C\c2c[nH]c3ccccc23)c1 | inconclusive: 44.7 µM [inhibitor, partial curve]
Cc1ccc2nc(N3C(=O)C(O)=C(C(=O)c4ccco4)C3c3cccc(O)c3)sc2c1 (centres undefined) | inconclusive: 39.8 µM [inhibitor, partial curve]
Fc1c(F)c(F)c(N/N=C/c2c[nH]c3ccccc23)c(F)c1F | inconclusive: 50.1 µM [inhibitor, partial curve]
CCc1n[nH]c(=S)n1/N=C/c1ccc(NC(C)=O)cc1 | inconclusive: 89.1 µM [inhibitor, single point]
COc1ccc(C2=NS(=O)(=O)N(C)C(C(=O)N3CCCCC3)=C2)cc1OC | inconclusive: 89.1 µM [inhibitor, single point]
COc1ccc(S(=O)(=O)Cc2ccc(C(=O)N3CCN(c4cccc(C)c4)C(C)C3)o2)cc1 (centres undefined) | inconclusive: 79.4 µM [inhibitor, partial curve]
COC(=O)C1=NN(N=O)C2(CC(=O)N(c3cc(C)cc(C)c3)C2=O)C1 (centres undefined) | inactive
CCOc1ccc(-n2c(SCc3cc(=O)oc4cc(C)c(C(C)C)cc34)nnc2-c2cccnc2)cc1 | inconclusive: 79.4 µM [inhibitor, single point]
Cn1c(=O)n(Cc2ccc(F)cc2)c(=O)c2c1nc1n2CCN1Cc1ccco1 | inconclusive: 79.4 µM [inhibitor, partial curve]
Cc1ccc(-c2nnc(Nc3cccc(O)c3)c3ccccc23)cc1S(=O)(=O)N1CCN(C)CC1 | inconclusive: 70.8 µM [inhibitor, single point]
CCOc1cccc(/C=C/c2cc(C(=O)O)c3ccccc3n2)c1OC | inconclusive: 79.4 µM [inhibitor, single point]
O=C(O)C1C2CCC(O2)C1C(=O)Nc1ccc(F)cc1 (centres undefined) | inconclusive: 89.1 µM [inhibitor, single point]

Structure (SMILES) | Potency
NC1=NC(=O)/C(=C/c2cccc(-c3ccc(S(N)(=O)=O)cc3)c2)S1 | inconclusive: 89.1 µM [inhibitor, single point]
CC1Cc2cc(/C(O)=C3/C(=O)C(=O)N(CCCn4ccnc4)C3c3cccnc3)ccc2O1 (centres undefined) | inconclusive: 89.1 µM [inhibitor, single point]
N#C/C(=C\c1cccs1)C(=O)NCC1CCCO1 (centres undefined) | inconclusive: 89.1 µM [inhibitor, single point]
O=C(CSc1ccc(Cl)cc1)Nc1nnc(-c2ccco2)o1 | active: 50.1 µM
COc1cccc(NC(=O)CC(=O)c2ccc([N+](=O)[O-])cc2)c1 | inconclusive: 44.7 µM [inhibitor, partial curve]
C/C(N)=C(/C#N)C(=O)CSc1nc2ccccc2[nH]1 | inconclusive: 89.1 µM [inhibitor, single point]
N#C/C(=C\c1coc2ccc(O)cc2c1=O)C(=O)Nc1nc2ccccc2s1 | inconclusive: 89.1 µM [inhibitor, partial curve]
CC(C)COc1ccc(C(=O)N(Cc2ccc(N(C)C)cc2)Cc2ccco2)cc1 | active: 12.6 µM
O=C(NCCCn1ccnc1)/C(=C/c1ccccc1)NC(=O)c1ccccc1 | inconclusive: 79.4 µM [inhibitor, partial curve, poor fit]
O=[N+]([O-])c1ccc(N/N=C/c2c[nH]c3ccccc23)c(S(=O)(=O)Nc2ccc(Cl)cc2)c1 | active: 44.7 µM
CCc1nn(C)c(-c2n[nH]c(=S)n2N)c1Cl | inconclusive: 89.1 µM [inhibitor, single point]
Cc1ccc(-n2c(=O)c3cc4c(=O)n(-c5ccc(C)c(C)c5)c(=O)c4c(C(=O)c4ccc(C(=O)O)cc4)c3c2=O)cc1C | active: 10 µM
COc1ccc2c(c1)C(c1ccc(N3CCOCC3)cc1)=NNC(c1cccnc1)=N2 | inconclusive: 70.8 µM [inhibitor, single point]
CCOc1ccccc1NC(=O)c1cc2c(=O)oc3ccccc3c2s1 | inactive
Cc1ccc(NC(=O)CN2C(=O)NC(Cc3c[nH]c4ccccc34)C2=O)cc1S(=O)(=O)N1CCCCC1 (centres undefined) | inconclusive: 39.8 µM [inhibitor, partial curve]
Cc1cncn1CCc1nc2c3ccccc3nc(SCC(=O)Nc3cccc(Cl)c3)n2n1 | active: 11.2 µM
COc1ccccc1N1CCN(C(=O)CN(Cc2ccc(Cl)cc2)S(C)(=O)=O)CC1 | inconclusive: 79.4 µM [inhibitor, single point]
Cc1nc(SCC(=O)Nc2ccccc2Cl)oc1C | inconclusive: 70.8 µM [inhibitor, single point]
Cc1cnc(C(=O)OCc2csc(CC(=O)Nc3ccccc3C)n2)cn1 | inactive
CCc1nnc(NC(=O)CSc2nnc(-c3ccoc3C)n2-c2ccc(C)cc2)s1 | inconclusive: 89.1 µM [inhibitor, single point]
Cc1cccn2cc(CSc3nnc(Nc4ccc(C(C)C)cc4)s3)nc12 | inactive
CCN1C(=O)/C(=C\N2CCN(c3cccc(Cl)c3)CC2)SC1=S | inconclusive: 10 µM [inhibitor, full curve, poor fit]
Brc1ccc(-c2cn3nc4c(nc3n2)CCCC4)cc1 | inactive

Structure (SMILES) | Potency
O=C(Cc1ccccc1)Nc1cccc(-c2cn3cccnc3n2)c1 | inactive
CCCCCc1c2c(cc(O)c1C(=O)O)OC(=O)c1c(cc(OC)cc1C(=O)CCCC)O2 | active: 79.4 µM
CCn1ncc(Cl)c1C(=O)NC(=S)Nc1c(C)cc(C)cc1[N+](=O)[O-] | inconclusive: 39.8 µM [inhibitor, partial curve]
COc1ccc(OC)c(NC(=O)c2c(NCc3cccs3)sc3c2CCCC3)c1 | active: 35.5 µM
Cn1c(=O)nc2n(Cc3ccccc3)c3ccccc3cc-2c1=O | inactive
CC(C)(C)c1ccc(NC(=O)CNC2CCCc3ccccc32)cc1 (centres undefined) | inactive
CCOc1ccc(CN2CCC(C(=O)N3CCN(c4ccccc4F)CC3)CC2)cc1OC | inconclusive: 89.1 µM [inhibitor, single point]
CC1(C)CC(=O)C=C(Nc2ccccc2N)C1 | inconclusive: 89.1 µM [inhibitor, single point]
Cc1cccc(-n2c(C)cc(C(=O)NC3CCCCC3)c2C)c1 | inconclusive: 89.1 µM [inhibitor, single point]
CCOc1cc(/C=C(\C#N)C(=O)Nc2cccc(C(=O)O)c2)ccc1OCc1ccccc1Cl | active: 50.1 µM
O=C1N=NC(=O)N1c1ccccc1 | inconclusive: 79.4 µM [inhibitor, single point]
Cc1ccccc1NC(=O)Cc1nc(COC(=O)C(C)C)cs1 | inactive
O=C1NC(c2cccc(Br)c2)=N/C1=C\c1ccco1 | inconclusive: 89.1 µM [inhibitor, single point]
Clc1ccc(C2=Nn3c(nnc3-c3cccnc3)SC2)s1 | inactive
Cn1c(C(=O)Nc2ccc3c(c2)OCCO3)cc2sccc21 | inconclusive: 50.1 µM [inhibitor, partial curve]
COC(=O)C1=NN(C(=O)c2ccccc2)C(O)(c2ccc([N+](=O)[O-])cc2)C1 (centres undefined) | inconclusive: 39.8 µM [inhibitor, full curve, poor fit]
O=C1C2C(C(=O)N1/N=C/c1cc([N+](=O)[O-])c(O)cc1O)C1C=CC2C12CC2 (centres undefined) | inconclusive: 56.2 µM [inhibitor, partial curve]
CC(=O)CCc1ccc(OCCCCN2CCC(Cc3ccccc3)CC2)cc1 | active: 50.1 µM
O=C(NN1C(=O)c2ccccc2NC1c1ccccn1)c1ccccc1 (centres undefined) | inconclusive: 89.1 µM [inhibitor, single point]
O=C(NCCCN1CCOCC1)c1cc2c(=O)[nH]c3ccccc3c2s1 | inactive
COc1ccc(/C=N/NC(=O)C(Cc2c[nH]c3ccccc23)NC(=O)OCC(C)C)cc1[N+](=O)[O-] (centres undefined) | inconclusive: 89.1 µM [inhibitor, single point]
CCOC(=O)c1cc(-c2ccccc2)n(-c2cccc(C(=O)Nc3ccc(OCC)cc3)c2)c1C | inconclusive: 63.1 µM [inhibitor, partial curve]
Cc1cc(Cl)c(OCCOCCN2CCC(C)CC2)c(Br)c1 | inconclusive: 79.4 µM [inhibitor, single point]
